Experimental data reported in PubChem BioAssay AID938 (National Center for Advancing Translational Sciences (NCATS), 2007).
Hit rate of the full screen: of about 73,000 compounds, about 1,800 (2.5%) were called active. Inconclusive results, whose numbers are uncertain, are shown with a selection of clear calls. The call rests on the fitted dose curve; in most records, active means well fitted activation curve with a large enough effect; inconclusive means small, poorly fitted or top-dose-only effect; inactive means no such curve, though single readings can be large or run the other way. No potency is given beside an inconclusive call; the fits are too rough.

Test: qHTS Assay for Agonists of the Thyroid Stimulating Hormone Receptor: Activators of Intracellular cAMP Concentrations in Parental HEK 293; further: nearly all actives have a fitted effect of over 55% in size; on activation: % of control where 0% means no effect
Conditions: parental HEK293 CNG cAMP sensor, membrane potential fluorescence; activation: at 57.1 µM (top of the series) unless noted
Procedure, shortened: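 Parental HEK 293 cells stably expressing a modified CNG channel (no TSHR) report cAMP rise as membrane depolarization. Membrane potential dye with 100 uM RO 20-1724 was loaded for 60 min at room temperature, then compound added for 30 min; fluorescence read at 590 nm.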
Potency means the concentration at half of the fitted maximal effect; tags describe the fitted curve by direction and shape.

| Compound | Potency | activation |
| --- | --- | --- |
| CCc1nc2ccccc2n1Cc1ccc(OC)c(OC)c1 | inconclusive [activator, partial curve] | – |
| O=C(c1ccc(CSCc2ccccc2F)o1)N1CCN(c2ccc(N3CCOCC3)nn2)CC1 | inconclusive [activator, single point] | – |
| CCc1ccc(-c2nc(CN3CCC(C(=O)NCCc4ccc(OC)c(OC)c4)CC3)c(C)o2)cc1 | inconclusive [activator, partial curve, poor fit] | – |
| Cc1cccc(CNc2ccnc(-c3ccccc3CN(C)C)n2)c1 | active: 5.01 µM | – |
| CC1(c2ccc3noc(-c4ccc(Cl)cc4)c3c2)OCCO1 | inconclusive [activator, partial curve] | – |
| CN1CCc2c(sc3c2c(=O)n(-c2ccccc2)c2nncn32)C1 | inconclusive [activator, partial curve] | – |
| CC1CCN(S(=O)(=O)c2cccc(C(=O)Nc3ccccn3)c2)CC1 | – | inactive: 14% |
| Cc1cc(C(=O)OCC(=O)c2ccc3c(c2)OCCO3)c(C)o1 | inconclusive [activator, partial curve] | – |
| Cc1cccc(C)c1NC(=O)Cn1c(=O)n(CCCC(=O)NCc2ccco2)c(=O)c2sccc21 | inconclusive [activator, partial curve] | – |
| CCCOC(=O)Nc1ccc(N2CCCCC2)cc1 | – | inactive: -4.11% |
| CN(C)c1ncc2ncc(=O)n(Cc3cccs3)c2n1 | inconclusive [activator, full curve] | – |
| CC1CC(C)CN(C(=O)CSc2nnc(-c3ccc(Cl)cc3)o2)C1 (stereo unspecified) | inconclusive [activator, partial curve] | – |
| COC(=O)c1cc2ccsc2n1CC(=O)Nc1cc(Cl)ccc1OC | inconclusive [activator, partial curve] | – |
| O=C(O)[C@H]1O[C@H]1C(=O)O | – | inactive: 18.4% [at 11.4 µM] |
| COc1cccc(Cn2c(=O)c(-c3cccs3)nc3cnc(Nc4cccc(OC)c4)nc32)c1 | inconclusive [activator, partial curve] | – |
| COc1ccc(CCNC(=O)c2cc3c(=O)n4cccc(C)c4nc3n(Cc3ccncc3)c2=N)cc1 | – | inactive: 0.543% |
| COc1ccccc1C(=O)Nn1c(C2CCC2)nc2ccccc2c1=O | inconclusive [activator, full curve, poor fit] | – |
| Cc1ccc(-c2nc(CS(=O)(=O)CC(=O)N3CCc4ccccc4C3)c(C)o2)cc1 | active: 1.58 µM | – |
| CCCCOc1ccc(S(=O)(=O)NCc2csc(C)n2)cc1 | inconclusive [activator, full curve, poor fit] | – |
| CN(C)S(=O)(=O)c1nc(Cl)c2[nH]cnc2n1 | – | inactive: 9.58% [at 11.4 µM] |
| COc1ccc2c(c1)CN([C@H](C)[C@@H]1CC[C@@H]3[C@H]4CC[C@H]5C[C@@H](O)CC[C@@]5(C)[C@H]4CC[C@]31C)CO2 | – | inactive: -11.1% [at 11.4 µM] |
| CCOc1cc(Br)c(C(=O)O)cc1OCC | inconclusive [activator, partial curve] | – |
| Cc1ccc(NC(=O)C2CC(=O)NC(Nc3cccc(C)c3)=N2)cc1 (stereo unspecified) | inconclusive [activator, partial curve] | – |
| O=C(O)c1c(Sc2ccccc2)c2cc(Cl)ccc2n1Cc1ccc(Cl)cc1 | inconclusive [activator, partial curve] | – |

| Compound | Potency | activation |
| --- | --- | --- |
| O=C(c1cc2nc(-c3ccc(F)cc3)cc(C(F)(F)F)n2n1)N1CCOCC1 | inconclusive [activator, single point] | – |
| CC(C)C(C(=O)NCc1ccco1)N(C(=O)CNS(=O)(=O)c1ccccc1)C1CCCC1 (stereo unspecified) | inconclusive [activator, partial curve] | – |
| Nc1c(Br)cc(Br)c(N2CCCC2=O)c1Br | inconclusive [activator, single point] | – |
| O=C(C1CCN(S(=O)(=O)c2ccc(-n3cnnn3)cc2)CC1)N1CCN(c2ccccc2)CC1 | inconclusive [activator, single point] | – |
| CC(Cc1ccccc1)C(=O)NCc1ccccn1 (stereo unspecified) | inconclusive [activator, single point] | – |
| Nc1nc(SCC(=O)N2CCc3ccccc32)[nH]c(=O)c1-c1ccccc1 | inconclusive [activator, single point] | – |
| CCOC(=O)C1CCN(C(=O)c2ccccc2Oc2ccccc2)CC1 | inconclusive [activator, single point] | – |
| CSc1ncccc1C(=O)OCc1ccccc1 | inconclusive [activator, partial curve, poor fit] | – |
| CCC(=O)Nc1cccc(NC(=O)COc2ccc(OC)cc2)c1 | – | inactive: 0.616% |
| COc1cccc(Cn2c(=O)c(-c3cccs3)nc3cnc(OC)nc32)c1 | inconclusive [activator, full curve, poor fit] | – |
| Cc1cccc(N2CCN(CC(=O)NCC3CCCCC3)CC2)c1C | inconclusive [activator, partial curve] | – |
| Cc1onc(-c2ccccc2Cl)c1C(=O)Nc1cccc(-c2cn3cccnc3n2)c1 | – | inactive: 6.57% |
| CCCCC[C@H](O)/C=C\[C@@H]1[C@H](O)CC(=O)[C@@H]1CCCCCCC(=O)O | active: 0.0025 µM | – |
| O=C(Cc1cc(=O)[nH]c(=O)[nH]1)N1CCC(Cc2ccccc2)CC1 | – | inactive: 3.59% |
| Cc1ccc(-c2noc(CCC(=O)NCCCN3CCN(c4cccc(Cl)c4)CC3)n2)cc1 | inconclusive [activator, single point] | – |
| CCc1ccc(NC(=O)C2CCN(S(C)(=O)=O)CC2)cc1 | inconclusive [activator, single point] | – |
| C=C(Cl)COc1ccc2c(CC)cc(=O)oc2c1 | inconclusive [activator, single point] | – |
| CN1/C(=C\C(=O)COC(=O)C2COc3ccccc3O2)C(C)(C)c2ccccc21 (stereo unspecified) | – | inactive: 2.98% |
| C=CC(=O)N1C(=O)c2ccccc2S1(=O)=O | inconclusive [activator, single point] | – |
| O=c1c2ccccc2ncn1-c1ccc2c(c1)OCCO2 | – | inactive: 6.56% |
| Cc1occc1-c1nnc(SCc2nc3ccccc3c(=O)n2CC#N)n1C | inconclusive [activator, full curve] | – |
| CN(C(=O)c1ccc2c(c1)OCO2)C1(C(=O)NC2CCCC2)CCCCC1 | inconclusive [activator, full curve] | – |
| COc1ccc(NC(=O)c2cc(=O)c3ccccc3o2)cn1 | – | inactive: -12.9% |
| O=C(c1ccco1)N1CCC2(CC1)CN(C(c1ccccc1)c1ccccc1)C2 | inconclusive [activator, partial curve] | – |

| Compound | Potency | activation |
| --- | --- | --- |
| CC(=O)N1CCN(c2nc3cc4c(cc3nc2NS(=O)(=O)c2ccccc2)OCCO4)CC1 | – | inactive: -1.98% |
| COc1nc(N(C)C)nc(-n2nnc(C(C)=O)c2C)n1 | inconclusive [activator, full curve, poor fit] | – |
| Cc1[nH]nc2c1C(=O)CCC2 | inconclusive [activator, single point] | – |
| Cc1cc(N(C)C)nc(SC(C)C)n1 | inconclusive [activator, full curve] | – |
| COc1nc(OC)nc(N(C)CCO)n1 | – | inactive: -0.636% |
| O=C(Nc1nc(-c2cccs2)cs1)c1cccc(S(=O)(=O)N2CCCCC2)c1 | – | inactive: 24.8% |
| COc1ccc(-c2cnnn2-c2ccc(NC(=O)c3ccco3)cc2)cc1OC | inconclusive [activator, full curve, poor fit] | – |
| CCCCn1c(SCC(=O)Nc2nnc(C(C)C)s2)nc2c1c(=O)n(C)c(=O)n2C | active: 1.58 µM | – |
| OC[C@H]1O[C@H](n2cnc3c(NC4CCCC4)nc(Cl)nc32)[C@@H](O)[C@@H]1O | – | inactive: 5.69% |
| COc1ccc(OC)c(-c2cc(C(=O)N3CCCc4ccccc43)no2)c1 | inconclusive [activator, partial curve] | – |
| Cc1cc(C)cc(OCC(=O)Nc2ccc(N3CCCC3)cc2)c1 | – | inactive: -12.6% |
| O=C(c1cnccn1)N1CCC[C@@]2(CCN(Cc3cc(C(F)(F)F)cc(C(F)(F)F)c3)C2)C1 | inconclusive [activator, partial curve] | – |
| CC(=O)c1ccccc1[N+](=O)[O-] | – | inactive: 7.88% |
| Cc1ccc(S(=O)(=O)c2ccc(Cl)cc2)cc1S(=O)(=O)N1CCOCC1 | – | inactive: 23.8% |
| O=C(Nc1cccc(NC(=O)N2CCN(c3ccccc3)CC2)c1)N1CCN(c2ccccc2)CC1 | – | inactive: -10.9% |
| O=C(C1Cc2ccccc2CN1S(=O)(=O)c1ccc(F)cc1)N1CCCCC1 (stereo unspecified) | inconclusive [activator, partial curve] | – |
| CCCn1c(-c2ccc(F)cc2)nc2c(NCCN(C(C)C)C(C)C)nc(C)nc21 | active: 12.6 µM | – |
| CCn1c(SCC(=O)C(C)(C)C)nnc1-c1ccccc1OC | inconclusive [activator, single point] | – |
| CCN1c2ccccc2-c2nc3ccccc3n2C1c1cccnc1 (stereo unspecified) | active: 31.6 µM | – |
| COc1cc2c(cc1OC)-c1cc(NC3CCCCCC3)nc(=O)n1CC2 | – | inactive: 19.4% |
| COC(=O)c1cc(NC(=O)CC2C(=O)NCCN2C(=O)c2ccccc2)cc(C(=O)OC)c1 (stereo unspecified) | inconclusive [activator, single point] | – |
| COc1ccccc1Nc1nc(N)nc(CN2CCN(c3ccccc3)CC2)n1 | – | inactive: 27% |
| CCc1cccc(NC(=O)Cn2cc3c(n2)CCCC3)c1 | – | inactive: 3.47% |
